For 32 compounds, z-score results are on record in PubChem BioAssay AID488969 (Vanderbilt High Throughput Screening Facility, 2010).

In all, about 110,000 compounds were measured (“z-score”: median about -0.1, highest 2% from about 2 on). This is one part of the list. Calls of active or inactive are those of the source.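 Rule for the calls: active = z-score in the third read window above 3 or below -3; inactive = the rest.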

This test addresses Metabotropic glutamate receptor 8 (Rattus norvegicus) (UniProt P70579). As to the kind of experiment: mGluR8 Gi/Go-coupled signaling modulation – cell-based, rat, thallium flux, HTS, primary screen (AID 488969). The following applies: HEK293 rat mGluR8, GIRK (G protein-gated inwardly rectifying potassium channel) thallium flux, FluoZin2; at 10 µM; stronger effect = higher value; submaximal glutamate (EC20) added with thallium.
Sequence of UniProt P70579 (P70579 whole entry, looked up): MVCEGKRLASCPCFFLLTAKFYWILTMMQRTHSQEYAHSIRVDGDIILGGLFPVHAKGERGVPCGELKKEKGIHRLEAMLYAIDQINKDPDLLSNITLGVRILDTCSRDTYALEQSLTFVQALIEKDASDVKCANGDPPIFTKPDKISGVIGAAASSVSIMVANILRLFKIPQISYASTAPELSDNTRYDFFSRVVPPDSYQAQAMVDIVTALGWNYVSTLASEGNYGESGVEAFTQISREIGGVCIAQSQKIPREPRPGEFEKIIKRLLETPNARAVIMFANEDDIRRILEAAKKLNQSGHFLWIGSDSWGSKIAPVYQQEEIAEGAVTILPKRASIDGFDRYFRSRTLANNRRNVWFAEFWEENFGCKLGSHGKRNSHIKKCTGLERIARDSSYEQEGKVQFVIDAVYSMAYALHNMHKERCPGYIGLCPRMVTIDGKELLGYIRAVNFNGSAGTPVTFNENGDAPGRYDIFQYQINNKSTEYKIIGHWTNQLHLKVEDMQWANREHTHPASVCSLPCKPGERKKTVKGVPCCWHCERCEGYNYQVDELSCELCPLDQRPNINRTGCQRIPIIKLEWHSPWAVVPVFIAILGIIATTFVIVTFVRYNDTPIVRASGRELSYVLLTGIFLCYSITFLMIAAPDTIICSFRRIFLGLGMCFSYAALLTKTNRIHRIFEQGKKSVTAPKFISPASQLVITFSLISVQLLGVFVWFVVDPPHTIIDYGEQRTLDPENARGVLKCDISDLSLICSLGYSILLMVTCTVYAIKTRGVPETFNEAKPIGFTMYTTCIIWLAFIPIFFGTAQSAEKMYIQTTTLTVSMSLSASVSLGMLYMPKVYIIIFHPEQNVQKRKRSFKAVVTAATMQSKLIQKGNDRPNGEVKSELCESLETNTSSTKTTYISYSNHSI
The compound `CC(C)OC(=O)C1C(=O)CC(C)(O)C(C(=O)OC(C)C)C1c1cccnc1` (configuration not stated) registered a z-score of -0.0253.

In turn, `CNc1cc(C)nc(-n2nc(C)cc2C)n1` registered a z-score of -0.496.

The compound `Cc1cc(NC(=O)c2cc3n(n2)C(C(F)(F)F)CC(c2ccco2)N3)no1` (configuration not stated) came in with a z-score of 0.191.

`CCc1ccc(OCC(=O)Nc2ncc3c(n2)CC(C)(C)CC3=O)cc1` registered a z-score of -0.103.

`CNC(=O)c1csc(-c2ccc(C)cc2)n1` had a z-score of -0.0517.

`O=C(c1cnn2c(C(F)(F)F)cc(-c3ccco3)nc12)N1CCc2ccccc2C1`: the z-score is -1.04.

For `Cc1noc(C)c1COC(=O)CCc1nc2ccccc2s1`, the z-score was 0.465.

In turn, `O=C(Nc1nc(=O)n(C(=O)C2CC2)s1)c1ccccc1` returned a z-score of -0.0174.

The compound `O=C(c1ccccc1)c1ccc(C(=O)N2CCOCC2)cc1` showed a z-score of -0.534.

Compound `O=C(Cn1cccc1C(=O)c1ccccc1)NCCCN1CCOCC1` came in with a z-score of 0.641.

Turning to `Cn1ncc2c(NNC(=O)c3ccc(Cl)c(Cl)c3)ncnc21`, the z-score was 0.000366.

The compound `CCOC(=O)c1ccc(NC(=O)c2cnccn2)cc1` gave a z-score of -0.223.

`O=C(c1scc2c1CCCC2)N1CCOCC1` returned a z-score of 0.764.

In turn, `Oc1ccc(Nc2nc(-c3cccs3)cs2)cc1` gave a z-score of 0.139.

For `Cn1cc(S(=O)(=O)NCc2ccco2)c(=O)n(C)c1=O`, the z-score is 0.0811.

On to `O=S(=O)(/C=C/c1ccccc1)NCc1ccccc1Cl`, for which the z-score amounted to 0.155.

The compound `O=C(COc1ccccc1)Nc1ccccc1N1CCN(c2ccccc2)CC1` displayed a z-score of 0.46.

In turn, `CCc1cccc(CC)c1NC(=O)CSc1nc2ccc(N3C(=O)C4C5C=CC(C5)C4C3=O)cc2s1` (configuration not stated) registered a z-score of -0.0336.

`COc1ccc2cc(CN(Cc3ccco3)C(c3nnnn3C3CCCCC3)C(C)C)c(=O)[nH]c2c1` (configuration not stated) registered a z-score of 1.45.

In turn, `Cc1cn(C2C=CC(CO)O2)c(=O)[nH]c1=O` (configuration not stated) came in with a z-score of 1.46.

`CCOC(=O)c1cccc(NC(=O)Nc2cc(OC)ccc2OC)c1` had a z-score of -1.93.

`CCc1cccc(NC(=O)c2ccc(Br)o2)c1` had a z-score of -0.575.

On to `O=C(COc1ccccc1)NC(=S)Nc1ccc2c3c(cccc13)CC2`, for which the z-score is active: 4.29.

`Fc1ccc(Cn2nnnc2C(c2ccc(Cl)cc2)N2CCSCC2)cc1` (configuration not stated) showed a z-score of 0.0411.

Compound `CC1=NN(c2nc(-c3ccc(C)cc3)cs2)C(=O)C1N=Nc1cccc(C)c1` (configuration not stated) returned a z-score of -0.0444.

For `O=C(c1cnsn1)N1CCN(c2ccccc2)CC1`, the z-score stood at 0.79.

As to `CCC(=O)Nc1ccc(C(=O)CSc2nc3ccccc3cc2CC)cc1`, the z-score was -0.0164.

For `c1ccc(-c2nc(NCc3ccco3)c3oc4ccccc4c3n2)cc1`, the z-score was -0.0363.

`CC(=O)Nc1cccc(-c2csc(Nc3ccc(C)cn3)n2)c1` had a z-score of -0.051.

In the case of `O=C(Nc1ccc2nc(-c3ccco3)c(-c3ccco3)nc2c1)NC1CC1`, the z-score was -0.968.

Turning to `CCOC(=O)c1sc2nc3c(cc2c1N)COC(C)(CC)C3` (configuration not stated), the z-score was 0.482.

Turning to `COc1cccc(-c2nc(-c3ccccn3)no2)c1OC`, the z-score worked out at 0.5.
